# In PubChem BioAssay AID624296 (National Center for Advancing Translational Sciences (NCATS), 2012):
# Out of some 350,000 compounds screened, about 9,900 (2.8%) were called active. Inconclusive means that the source gave no clear call. Such entries were picked first, then a sample of the others. Calls follow the shape of the dose curve; as a rule, active = well fitted activation curve with a large enough effect; inconclusive = small, poorly fitted or top-dose-only effect; inactive = no such curve, though single readings can be large or run the other way. Potencies of inconclusive entries are left out as doubtful fits.
# Assay: A quantitative high throughput screen for small molecules that induce DNA re-replication in MCF 10a normal breast cells. Also: nearly all actives have a fitted effect of over 50% in size.
# Conditions: MCF 10A DNA re-replication, Hoechst nuclear intensity, 48 h; series mostly up to 46.1 µM
# Potency is read from the fitted curve at half-maximal effect; tags tell the direction and shape of the fitted curve.
row,Compound,Potency
1,COCCCNCCCCOc1ccc(Br)cc1C,"inconclusive [activator, partial curve]"
2,COc1ccc(C(=O)Nc2cccc(C(=O)O)c2)cc1S(=O)(=O)N1CCCC1,"inconclusive [activator, single point]"
3,COC(=O)N1[C@H](C)C=C[C@]1(Cc1ccccc1)C(=O)NCCCNc1ncc(C(F)(F)F)cc1Cl,"inconclusive [activator, full curve, poor fit]"
4,Cc1[nH]c2ccccc2c1C(=O)C(C)OC(=O)c1ccccc1NCCO (centres undefined),"inconclusive [activator, partial curve, poor fit]"
5,Cc1cc(C(=O)CSc2nnc(NCc3ccccc3)s2)c(C)n1C,"inconclusive [activator, partial curve, poor fit]"
6,NC(=NC1CCCCC1)NS(=O)(=O)c1ccccc1,inactive
7,COc1ccc(NC(=O)Cn2cnc3sc(C)c(S(=O)(=O)N4CCOCC4)c3c2=O)c(OC)c1,"inconclusive [activator, single point]"
8,CCOC(=O)c1ccccc1N1C(=O)C2Sc3[nH]c(=O)sc3C(/C=C/c3ccccc3)C2C1=O (centres undefined),"inconclusive [activator, single point]"
9,CCN(c1ccccc1)S(=O)(=O)c1ccc(F)cc1,inactive
10,CC(C)c1ccc(OCC(=O)Nc2cccc(C(=O)Nc3ccccc3C(=O)O)c2)cc1,"inconclusive [activator, partial curve, poor fit]"
11,CCN(Cc1ccccc1)c1ccc(/C=N/NC(=O)c2cccc(S(=O)(=O)N3CCOCC3)c2)cc1,"inconclusive [activator, partial curve]"
12,CC[n+]1c(C)cc(C)n1-c1ccccc1,inactive
13,C=C1SC(=Nc2c(C)cccc2Cl)N(C(=O)c2sc3ccccc3c2Cl)C12CCCCC2,"inconclusive [activator, single point]"
14,Cc1nc(COc2ccccc2Cl)sc1-c1ccnc(N)n1,inactive
15,COc1ccc(CCNS(=O)(=O)c2cccc(S(=O)(=O)N3CCCC3)c2)cc1OC,inactive
16,O=Cc1ccccc1Oc1ccccc1,inactive
17,Cc1ccccc1S(=O)(=O)N1C[C@H]2CON(C)[C@H]2C[C@H]1c1cccc(Oc2ccccc2)c1,"inconclusive [activator, single point]"
18,CCOc1ccc(-c2nnc3ccc(SCC(=O)NCc4ccco4)nn23)cc1,"inconclusive [activator, single point]"
19,Cn1c(=O)oc2cc(S(=O)(=O)Nc3ccccc3O)ccc21,"inconclusive [activator, single point]"
20,COC(=O)C1CCCN1C(=O)COc1ccc(Br)cc1Cl (centres undefined),"inconclusive [activator, single point]"
21,COc1ccc2oc(=O)c(-c3csc(Nc4ccc(O)cc4)n3)cc2c1,active: 4.11 µM
22,O=C(NCc1ccccc1)c1cnc(Cl)c(Cl)c1,inactive

row,Compound,Potency
1,O=C(c1nn2c(C(F)(F)F)cc(-c3ccco3)nc2c1Br)N1CCCc2ccccc21,active: 9.2 µM
2,CCOc1cccc(CNn2cnnc2)c1OCc1ccccc1Cl,"inconclusive [activator, single point]"
3,Nc1nc(=S)c2ncn([C@@H]3O[C@H](CO)[C@@H](O)[C@H]3O)c2[nH]1,"inconclusive [activator, full curve, poor fit]"
4,CCOC(=O)C(=NC(C)(C)C)NNc1cc(Cl)ccc1Cl,"inconclusive [activator, single point]"
5,CCCc1nc(N)c(C#N)c(-c2ccco2)c1CC,"inconclusive [activator, full curve]"
6,CCc1ccc(NC(=O)Cn2c(=O)oc3cc(S(=O)(=O)N4CCOCC4)ccc32)cc1,inactive
7,CCc1ccc2nc3nc(C)cc(C)c3c(N)c2c1,inactive
8,CCN(C(=O)COC(=O)c1ccc(O)cc1O)c1c(N)n(Cc2ccccc2)c(=O)[nH]c1=O,inactive
9,O=C(CN1C(=O)c2cccc3cccc1c23)Nc1cccnc1,"inconclusive [activator, single point]"
10,CCN(CC)CCCNC(=O)Cn1ccc2ccccc2c1=O,inactive
11,Cc1ccc(S(=O)(=O)c2c(N)n(-c3ccccc3)c3nc4ccccc4nc23)cc1,"inconclusive [activator, full curve, poor fit]"
12,Cc1noc(C)c1COc1ccc(C(=O)OCC(=O)N2CC3(C)CC2CC(C)(C)C3)cc1 (centres undefined),"inconclusive [activator, full curve, poor fit]"
13,COc1cccc(CNC(=O)Cc2ccc(-n3c(=O)[nH]c4ccccc4c3=O)cc2)c1,"inconclusive [activator, single point]"
14,CC(C)Cc1nc(N2CCCCC2)c(C#N)c2c1CCC2,"inconclusive [activator, single point]"
15,CCOC(=O)c1ccc(COC(=O)CNC(=O)CNC(=O)c2ccc(OC)cc2)o1,"inconclusive [activator, single point]"
16,CC1CC1C(=O)OCC(=O)NC(=O)NCc1ccco1 (centres undefined),"inconclusive [activator, single point]"
17,CCCN1C2=C(C(=O)CC(C)(C)C2)C(c2ccc(F)cc2)C2=C1c1ccccc1C2=O (centres undefined),inactive
18,N#Cc1cnc(SCCc2ccccc2)nc1N,active: 9.2 µM
19,O=C(COC(=O)C1CCCN1C(=O)C12CC3CC(CC(C3)C1)C2)c1ccc(Br)cc1 (centres undefined),"inconclusive [activator, single point]"
20,CCc1ccccc1NC(=O)CNC(=O)c1cccc(S(=O)(=O)N2CCN(Cc3ccccc3)CC2)c1,inactive
21,O=C(NNC(=O)c1ccccc1O)c1ccccc1O,"inconclusive [activator, full curve]"
22,COc1ccc(C)cc1-n1nnnc1SCc1cc(=O)n2cc(C)ccc2n1,"inconclusive [activator, partial curve, poor fit]"
